PMC4336329 (PLoS ONE, 2015)
About 2,200 (0.71%) of roughly 310,000 compounds showed an effect of 50% or more. The effect is printed as a negative number. Some of the results follow.

The compounds below were run against human ether-à-go-go-related gene (hERG) potassium channel (human, UniProt Q12809) (assay: primary screen, population patch clamp on CHO cells stably expressing hERG).
human ether-à-go-go-related gene (hERG) potassium channel, sequence (Q12809 whole entry, looked up): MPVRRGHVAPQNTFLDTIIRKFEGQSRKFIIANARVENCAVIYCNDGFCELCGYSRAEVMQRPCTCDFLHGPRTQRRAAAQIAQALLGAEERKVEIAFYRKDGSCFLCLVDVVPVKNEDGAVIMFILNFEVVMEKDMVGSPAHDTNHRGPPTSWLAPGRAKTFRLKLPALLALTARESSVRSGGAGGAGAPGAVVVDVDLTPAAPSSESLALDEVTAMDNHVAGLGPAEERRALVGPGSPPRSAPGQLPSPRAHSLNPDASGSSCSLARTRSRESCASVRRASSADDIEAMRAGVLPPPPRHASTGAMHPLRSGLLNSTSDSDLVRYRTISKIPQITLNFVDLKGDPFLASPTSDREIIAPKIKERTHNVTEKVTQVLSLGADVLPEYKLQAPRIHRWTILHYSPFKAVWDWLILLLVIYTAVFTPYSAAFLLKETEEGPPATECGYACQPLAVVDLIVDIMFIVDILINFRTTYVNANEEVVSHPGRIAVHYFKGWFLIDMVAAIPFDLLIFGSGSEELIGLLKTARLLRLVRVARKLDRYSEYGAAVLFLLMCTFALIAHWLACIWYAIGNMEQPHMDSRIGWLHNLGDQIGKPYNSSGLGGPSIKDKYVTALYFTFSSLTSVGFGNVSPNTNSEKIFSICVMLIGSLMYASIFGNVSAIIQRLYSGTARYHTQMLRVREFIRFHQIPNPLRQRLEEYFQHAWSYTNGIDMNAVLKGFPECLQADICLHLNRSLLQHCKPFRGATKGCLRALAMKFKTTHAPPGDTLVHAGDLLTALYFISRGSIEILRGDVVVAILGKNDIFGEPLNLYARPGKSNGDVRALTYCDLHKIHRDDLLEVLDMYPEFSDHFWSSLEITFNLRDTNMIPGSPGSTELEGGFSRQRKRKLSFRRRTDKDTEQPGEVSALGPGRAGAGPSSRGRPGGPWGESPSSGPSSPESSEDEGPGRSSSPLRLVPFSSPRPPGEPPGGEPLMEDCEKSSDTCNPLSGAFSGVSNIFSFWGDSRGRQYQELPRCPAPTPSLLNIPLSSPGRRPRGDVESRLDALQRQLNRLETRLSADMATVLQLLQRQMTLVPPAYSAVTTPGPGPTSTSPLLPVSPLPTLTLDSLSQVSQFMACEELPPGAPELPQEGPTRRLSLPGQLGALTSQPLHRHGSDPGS

Row | SMILES | hERG current change (%, negative = inhibition) at 1uM
1 | O=C(O)CCn1cc(-c2ccc(Cl)cc2)nc1-c1ccc(Cl)nc1 | 12.4%
2 | C/C(CC(=O)Nc1ccccn1)=N\NC(=O)c1cnccn1 | 5.98%
3 | COCCn1c(SCC(=O)NC2CCCC2)nnc1-c1ccncc1 | 2.28%
4 | Cc1nn(-c2ccc(Cl)cc2)c2sc(C(=O)c3c(N)n(C)c(=O)n(C)c3=O)cc12 | 1.16%
5 | CC1=C(C(=O)N2CCOCC2)C(c2ccc(Br)cc2)NC(=S)N1c1ccccc1 (centres unmarked) | 6.05%
6 | CN(C)S(=O)(=O)c1cccc(NC(=O)NCCCl)c1 | 8.11%
7 | O=C(CCC(=O)N1CCN(C(=O)c2ccco2)CC1)c1ccc(F)cc1 | -24.4%
8 | Cc1cc(=O)oc2cc(OCc3nnc(-c4ccccc4Br)o3)ccc12 | 4.02%
9 | CC1CN(C(=O)c2c([N+](=O)[O-])cnn2C)CC(C)O1 (centres unmarked) | 1.78%
10 | Cc1cnc(C)c(N2CCC(C(=O)NCc3ccco3)CC2)n1 | 2.16%
11 | COCCCn1c(=S)[nH]c2sc3c(c2c1=O)CCCS3 | 19.2%
12 | COc1ccc(NC(=O)CN(C)CC(=O)Nc2ccc(N3CCOCC3)cc2)c([N+](=O)[O-])c1 | 13.9%
13 | C=CCSc1ncc(C(=O)OCC)c(N)n1 | 4.37%
14 | COC(=O)N(c1ccccc1)P(=O)(Oc1ccccc1)Oc1ccccc1 | 11.1%
15 | Oc1ccc(Br)cc1/C=N/Nc1ncc(-c2ccccc2)cn1 | 11.8%
16 | O=C(CN1C(=O)c2ccccc2C1=O)OC(C(=O)c1ccc(Cl)cc1)c1ccccc1 (centres unmarked) | 12%
17 | CCC/C(O)=C1\C(=O)CC(C)(C)CC1=Nc1cccc([N+](=O)[O-])c1 | 3.6%
18 | O=C(CC1(O)C(=O)Nc2ccccc21)c1cccc(Br)c1 (centres unmarked) | 11.9%
19 | Oc1c(C=Nc2ccc(Cl)cn2)sc2ccccc12 | 6.69%
20 | CCc1nnc(NS(=O)(=O)c2ccc(N=Cc3c(C)[nH]n(-c4cccc(Cl)c4)c3=O)cc2)s1 | 8.28%
21 | COc1ccc(-c2nc(C#N)c(NCCc3ccccc3)o2)cc1OC | 10.5%
22 | CN1C(=O)N(CC(=O)N2CCN(c3ccccc3F)CC2)C(=O)C12CCCCC2 | 18.3%

Row | SMILES | hERG current change (%, negative = inhibition) at 1uM
23 | COc1cc(S(=O)(=O)N2CCN(C(=O)c3ccccc3)CC2)c(OC)cc1Br | -0.265%
24 | COc1ccccc1N(Cc1ccccc1)S(=O)(=O)c1cc(C(=O)O)ccc1Cl | 16.3%
25 | CCn1nc(NS(=O)(=O)c2ccccc2[N+](=O)[O-])c2cc3cccc(C)c3nc21 | 4.35%
26 | CSCCC(NC(=O)c1ccco1)C(=O)OCC(=O)Nc1sccc1C#N (centres unmarked) | 7.07%
27 | Cn1c(=O)c(=O)n(C)c2cc(S(=O)(=O)NCCc3ccccc3)ccc21 | -15.2%
28 | Cc1cccc(NC(=S)NC2CC3CCCC(C2)N3CC(C)C)c1C (centres unmarked) | 2.95%
29 | CCN(CC)C(=O)CSc1nnc2c3ccccc3n(C)c2n1 | 9.94%
30 | CC(=O)c1ccc(NC(=O)C(C)OC(=O)C2CC(=O)N(c3ccc4c(c3)OCCO4)C2)cc1 (centres unmarked) | 14.3%
31 | COCCCNc1nnc(Cc2ccccc2)c2ccccc12 | -13.1%
32 | COc1ccc(-n2c(=O)c3c4c(sc3n(CC(=O)NCc3ccco3)c2=O)CCC4)c(OC)c1 | -6.43%
33 | COc1ccc(NC(=O)Nc2sc(NS(=O)(=O)c3ccccc3)nc2C)cc1 | 18.3%
34 | CC1(c2ccccc2)O[C@@H]2C[C@H]3[C@@H]4CCC5=CC(=O)C=C[C@]5(C)[C@@]4(F)[C@@H](O)C[C@]3(C)[C@]2(C(=O)CO)O1 (some centres unmarked) | -44.6%
35 | Cn1c(=O)c(-[n+]2ccccc2)c([O-])c2ccccc21 | 3.63%
36 | COc1ccccc1C1C=C(c2ccc(Cl)cc2)Nc2nc(NS(C)(=O)=O)nn21 (centres unmarked) | -2.26%
37 | CC(=O)Nc1ccccc1OC(=O)N(C)C | 2.5%
38 | CN1C(=O)/C(=C2\SC(=S)N(NC(=O)c3cccnc3)C2=O)c2ccccc21 | 3.52%
39 | O=C(COC(=O)c1ccc(Br)o1)NCc1ccc(F)cc1 | 11.2%
40 | CSc1nc(Oc2ccc(C)cc2)cc(C(F)(F)F)n1 | 16.9%
41 | CC1(C)CC(=O)C=C(c2cc3ccccc3s2)C1 | 12.8%
42 | COc1ccccc1NC(=O)CSc1nc(O)cc(=O)[nH]1 | 16.5%
43 | C=CCSc1nnc(NC(=O)CSc2nnc(C)s2)s1 | -2.49%
44 | Cc1nc(SCC(=O)O)c(C#N)c(-c2ccco2)c1C(=O)N(C)C | 8.87%

Row | SMILES | hERG current change (%, negative = inhibition) at 1uM
45 | CC(=O)COc1ccc2cc(-c3ccccc3)c(=O)oc2c1 | 8.41%
46 | COC(=O)CC(=O)Cc1nc(N)nc(Nc2ccc(C)c(C)c2)n1 | -1.19%
47 | O=C(CSc1nnc(Cc2ccccc2)o1)NCc1ccco1 | 20.2%
48 | O=c1c2ccccc2nc(COc2ccccc2)n1/N=C/c1ccc(O)c(O)c1 | 9.04%
49 | COc1ccc(S(=O)(=O)N2CCC(C(=O)NCCc3ccccc3)CC2)cc1OC | -11.9%
50 | Cc1ccc(S(=O)(=O)CCC(=O)OC(C)C(=O)Nc2ccc(N3CCOCC3)cc2)cc1 (centres unmarked) | 8.5%
51 | CCC(=O)N1N=C(c2ccccc2)CC1c1ccccc1 (centres unmarked) | 10.5%
52 | COc1ccc(CC(=O)Nc2cc(Cl)ccc2O)cc1 | 5.55%
53 | CSc1cccc(N2CC(C(=O)Nc3cccc(S(=O)(=O)N4CCCC4)c3)CC2=O)c1 (centres unmarked) | 3.97%
54 | O=C(NCc1ccco1)c1ccc(Cn2c(=O)c3ccccc3n(Cc3cccc(Cl)c3)c2=O)cc1 | -8.04%
55 | CC(=O)c1ccc(-c2ccc(/C=C(/Sc3n[nH]c(C)n3)C(=O)O)o2)cc1 | -14.1%
56 | O=C(NCC1(c2ccccc2)CCOCC1)c1cccs1 | 17.4%
57 | O=C(CN1CCN(c2ccccn2)CC1)NCc1cccs1 | -12.4%
58 | CCn1c(SCC(=O)NC(C)C(C)C)nc2cc(S(=O)(=O)N3CCOCC3)ccc21 (centres unmarked) | 12.1%
59 | Cc1ccc(N2C(=O)c3ccccc3C2=O)cc1C | 8.14%
60 | Br.CC(Cc1ccc(O)cc1)NCC(O)c1cc(O)cc(O)c1 (centres unmarked) | 17.7%
61 | O=C1CCCN1CCCNS(=O)(=O)c1ccc(F)cc1F | 14.5%
62 | COc1ccc(-c2csc3ncnc(N4CCN(c5cccc(Cl)c5)CC4)c23)cc1 | 5.02%
63 | O=C(COc1ccc2c3c(c(=O)oc2c1)CCC3)NC(Cc1ccc(Cl)cc1)C(=O)O (centres unmarked) | 6.32%
64 | O=C(NC(Nc1ncc(S(=O)(=O)c2ccc([N+](=O)[O-])cc2)s1)(C(F)(F)F)C(F)(F)F)c1ccc(Cl)cc1 | 3.47%
65 | COc1ccc(/C=N/NC(=O)c2cccc([N+](=O)[O-])c2)cc1OS(=O)(=O)c1ccc(C)cc1 | -6.24%
66 | Cc1ccsc1/C=C1\CCC(C2CCCC2)C1=O (centres unmarked) | 15.1%

Row | SMILES | hERG current change (%, negative = inhibition) at 1uM
67 | Cc1ccc(S(=O)(=O)N(C)CCCC(=O)N2CCCCC2)cc1 | 6.01%
68 | CCC(C)(C(=O)NC1CCCCC1)N(Cc1ccco1)C(=O)c1ccc2c(c1)OCO2 (centres unmarked) | 1.6%
69 | Cc1ccc(C)c(N2CCN(C(=O)c3cc4c(C)nc5ccccc5c4o3)CC2)c1 | 8.53%
70 | CCN1C(=O)[C@H]2[C@@H](c3ccc(-c4ccc(C(C)=O)cc4)cc3)N3CCCC[C@@]3(C(=O)OC)[C@H]2C1=O.O=C(O)C(F)(F)F | 11.3%
71 | Cc1ccc(C)c(Nc2nc(N)c3ccccc3n2)c1.Cl | -7.38%
72 | CC(C)CC(c1nnnn1CCc1ccccc1)N1CCC(C(N)=O)CC1 (centres unmarked) | 4.62%
73 | COC(=O)CCCCCCCCC(O)CN(C)C (centres unmarked) | 16.2%
74 | Cc1ccccc1Cn1c(=N)n(CC(O)c2ccco2)c2ccccc21.Cl (centres unmarked) | -33.4%
75 | O=C(/C=C/c1ccc(Cl)c(Cl)c1)N1CCOCC1 | 7.16%
76 | N#CCCN(C(=O)c1cc2c(s1)-c1ccccc1S(=O)(=O)C2)c1ccccc1 | -1.14%
77 | Cc1ccc(S(=O)(=O)NCC(=O)N(CC2CCCO2)C(C(=O)NCC2CCCO2)C(C)C)cc1 (centres unmarked) | 11.8%
78 | Cc1ccc[n+](CC(=O)Nc2cccc(Cl)c2)c1.[Cl-] | 15.8%
79 | CC(OC(=O)CCc1ccccc1)C(=O)Nc1ccc(Cl)cn1 (centres unmarked) | 1.27%
80 | CCC(Cc1ccccc1)NC(=O)C1CCN(S(=O)(=O)c2ccc3c(c2)CC(C)N3C(C)=O)CC1 (centres unmarked) | 16.9%
81 | CN(C)CCCN1CC(=O)N2[C@@H](Cc3c([nH]c4ccccc34)C2(C)C)C1=O | 14.1%
82 | CC(=O)Nc1ccc(NC(=O)C2(C)CC2(Cl)Cl)cc1 (centres unmarked) | 18.6%
83 | Cc1occc1C(=O)Nc1nccs1 | 10%
84 | Cc1cccc(C(=O)NNC(=O)c2ccc(-c3ccccc3)cc2)c1 | 17.2%
85 | COC(=O)C1=CNC=C(C(=O)OC)C1c1cccc(OC)c1 | 9.02%
86 | Cc1ccc(C)n1NC(=O)c1ccccc1O | 0.407%
